Data as given in ChEMBL document CHEMBL4888484, “Replenishing the malaria drug discovery pipeline: Screening and hit evaluation of the MMV Hit Generation Library 1 (HGL1) against asexual blood stage Plasmodium falciparum ,using a nano luciferase reporter read-out” (2022).
The whole screen tested about 150,000 compounds, of which about 540 (0.36%) showed an effect of 50% or more. Some of the results follow.

What follows are molecules tested on Plasmodium falciparum (assay: Primary screen in NF54 nanoGlo assay, in single point, at 2uM, 72h; a lower Z score goes with more inhibition). Conditions: timepoint 72 hour.
Assay type: functional, Erythrocyte

Row | Structure (SMILES) | % Inhibition [%] | Z score
1 | CC[C@H](C)NC(=O)NCCn1nnc2cc(S(=O)(=O)NC(C)C)ccc21 | -11 | 1.15
2 | Fc1ccc([C@@H]2CN(Cc3noc(C4CC4)n3)CCO2)c(Cl)c1 | -7 | 0.91
3 | Cn1nc2n(c1=O)C[C@@H](c1ncnn1CCc1ccccc1)CC2 | -22 | 2.53
4 | Cc1nc(-c2ccc(NC(=O)c3ccc(O)nc3)cc2)co1 | 0 | -0.03
5 | CC(C(=O)Nc1ccc(Br)cc1Br)N1CCCC(CC(=O)O)C1 (stereo not given) | -9 | 1.09
6 | C[C@@H](CS(C)(=O)=O)NC(=O)N(C)Cc1ccc(Cl)c(F)c1 | -11 | 1.45
7 | FC(F)(F)c1ccc(C2(CNC3CCOCC3)CC2)cc1 | -12 | 1.61
8 | COc1ccc(O[C@@H]2CNCCOC2)cc1 | -7 | 0.9
9 | Cc1nc(CN(C)CCC[C@H]2CCCO2)cs1 | 4 | -0.33
10 | Cc1cc(C)c(OC(=O)Cn2c(C)csc2=O)c(C)c1 | -11 | 1.53
11 | Cc1cc2ncn(-c3ccc(-n4cnnc4)nc3)c2cc1C | -13 | 1.77
12 | Cc1cc(C)nc(CCNCc2c[nH]nc2-c2ccc(F)cc2F)n1 | 1 | -0.15
13 | O=C(NCc1cc[nH]n1)Nc1ccncc1 | -4 | 0.69
14 | N#CC1(C(=O)N2CCC3(CC2)NC(=O)NC3=O)CCCCC1 | -4 | 0.55
15 | CN(C(=O)Cc1cccnc1)[C@H]1CCN(CC(F)(F)F)C1=O | 7 | -1.12
16 | Fc1ccc2oc(N3Cc4ccccc4CO3)nc2c1 | -5 | 0.75
17 | COc1ccc(NC(=O)c2cnn(Cc3ccccc3Cl)c2)cc1S(=O)(=O)N1CCCCC1 | -7 | 0.96
18 | Cc1ccccc1C(=O)Cc1ncc[nH]1 | 87 | -5.77
19 | NS(=O)(=O)c1ccccc1-c1cc(NCc2cccnc2)nc2[nH]ccc12 | -9 | 1.41
20 | O=C(Nc1ccc(Cl)c(Cl)c1)Nc1ccc(Cl)cc1NC(=O)Nc1ccc(Cl)c(Cl)c1 | 33 | -6.17
21 | Cc1ccc([C@@H](NC(=O)N(C)CC(C)(C)O)C(C)(C)C)o1 | -1 | 0.1
22 | c1cc(-c2cn3ccsc3n2)cs1 | -4 | 0.61
23 | C[C@H](NCc1nncn1C)c1ccc(OC(C)(C)C)cc1 | -8 | 0.84
24 | Cn1cc(-c2cccc3c2CCC3)ccc1=O | -6 | 0.62
25 | COc1ccccc1C(=O)N1C[C@@H](CO)[C@H](NC(=O)c2ccccc2)C1 | -17 | 2.86
26 | O=S(=O)(c1c(Cl)cccc1Cl)N1CC(Cn2cncn2)C1 | -16 | 1.99
27 | Cc1ccc(NC(=O)N2CCCC[C@H](N3CCN(C)CC3)C2)c(Cl)c1 | -2 | 0.23
28 | CCNC(=O)[C@H]1CCN(Cc2c[nH]nc2-c2ccc(F)cc2)C1 | -1 | 0.27

Row | Structure (SMILES) | % Inhibition [%] | Z score
29 | COCCNC(=O)NCCc1cccc(F)c1F | -4 | 0.68
30 | N#Cc1ncn(CCc2ccccc2)c1C#N | 14 | -1.79
31 | O=C(C[C@H]1C(=O)NCCN1Cc1ccc(F)cc1Cl)NCc1ccccn1 | 3 | -0.4
32 | CC(C)c1ccc(N2C[C@]34C=C[C@H](O3)C(C(=O)N3Cc5ccccc5C3)C4C2=O)cc1 (stereo not given in full) | -5 | 0.84
33 | CC(NC1CC(NC(=O)OC(C)(C)C)C1(C)C)c1cnn(C)n1 (stereo not given) | 2 | -0.19
34 | CC(C)CCNC(=O)c1cc2n(n1)CCCN(Cc1ccc(Cl)cc1)C2=O | -10 | 1.61
35 | Cc1nc(O)c(C(=O)NCCc2ccnn2C)cc1Br | 5 | -0.76
36 | CCCn1cc(B2OC(C)(C)C(C)(C)O2)c(C2CC2)n1 | 35 | -3.91
37 | OC1(CNCc2ccccc2OCc2cccnc2)CCCCC1 | -35 | 4.06
38 | CC1COC(c2ccccc2)C(C)N1C(=O)C1CCCNC1 (stereo not given) | -2 | 0.28
39 | COC(C)c1noc(CCC(=O)OC2CC3CC(C2C)C3(C)C)n1 (stereo not given) | -4 | 0.42
40 | C[C@@H](c1ccccc1)n1nnnc1N1CCC2(CCCO2)CC1 | -10 | 1.32
41 | CCOc1ccc(NC(=O)c2n[nH]c3ccccc23)cn1 | -14 | 1.45
42 | O=C(c1ccccc1COC1CCOCC1)N1CCC[C@H](c2nnc[nH]2)C1 | 28 | -0.36
43 | COc1cccc(CNC(=O)CCC(=O)Nc2nnc3ccccn23)c1 | -10 | 1.14
44 | CCCN(CC(=O)c1c(C(C)C)nn(-c2ccc(C)cc2)c1O)C(=O)c1cccc(C(F)(F)F)c1 | -1 | 0.13
45 | CCCCc1nc(N2CCN(C(=O)c3ccccc3)CC2)c2c(-c3ccccc3)noc2n1 | 1 | -0.14
46 | CC(ON=C(N)CN1C(C)CCCC1C)c1ncc(-c2ccccc2)o1 (stereo not given) | -1 | 0.15
47 | CN1CC[C@@H]2CN(C(=O)c3ccc(-c4cn(-c5ccccc5)cn4)cc3)C[C@@H]21 | 8 | -1.29
48 | CC[C@@H](CO)N(Cc1cccs1)C(=O)c1cnc2ccccn12 | 1 | -0.2
49 | Cc1cc(N2CCN(C(=O)NCc3ccc4[nH]c(C)cc4c3)CC2)nc(N)n1 | 0 | 0.03
50 | O=C(CCc1nc2ccccc2s1)N1CCCN(C(=O)C2CCCC2)CC1 | -9 | 1.31
51 | CCc1noc(COC2CN(Cc3ccc(F)cc3Cl)C2)n1 | -2 | 0.42
52 | Cc1n[nH]c(C)c1CNc1cc(=O)n(C)c(=O)[nH]1 | -7 | 1
53 | O=C(NCCC1=CCCCC1)c1ccc(CN2C(=O)CCn3nc(-c4ccccc4)cc32)cc1 | -6 | 0.96
54 | COc1ccc(CCNC(=O)c2nnc(Cc3c(F)cccc3Cl)o2)cc1OC | 34 | -2.31
55 | CC(C)c1nccc([C@H]2CC(=O)Nc3cc(N4CCNC4=O)ccc32)n1 | -11 | 1.75
